Data reported in the supplement of paper PMC8728848.
Some of the results follow.

How the values were obtained:
Experiment in all cases: glycan array binding signal (z-score within array); higher = stronger binding
Conditions in all cases: glycan notation: IUPAC condensed, linker removed
[1] = biological target: Neu5Ac(a2-3)Gal6S(b1-4)[Fuc(a1-3)]GlcNAc
Outline: (§1)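 Arrays were curated from the Consortium for Functional Glycomics database, 3228 in total, and kept only where the protein sequence was available. Binding is expressed as a within-array Z-score. This score was averaged across arrays of the same protein sequence at different concentrations or buffers and across linkers, and negative values can be read as non-binding.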

Neu5Ac(a2-3)GalNAc = biological target: Neu5Ac(a2-3)GalNAc
Outline: as §1

[2] = biological target: Neu5Ac(a2-3)GalNAc(b1-4)GlcNAc
Outline: as §1

[3] = biological target: Neu5Ac(a2-3)[GalNAc(b1-4)]Gal(b1-4)Glc
Outline: as §1

[4] = biological target: Neu5Ac(a2-3)[GalNAc(b1-4)]Gal(b1-4)GlcNAc
Outline: as §1

[5] = biological target: Neu5Ac(a2-3)[GalNAc(b1-4)]Gal(b1-4)GlcNAc(b1-3)GalNAc
Outline: as §1

[6] = biological target: Neu5Ac(a2-3)[Neu5Ac(a2-6)]GalNAc
Outline: as §1

Neu5Ac(a2-6)Gal = biological target: Neu5Ac(a2-6)Gal
Outline: as §1

[7] = biological target: Neu5Ac(a2-6)Gal(b1-3)GlcNAc(b1-3)[Gal(b1-4)GlcNAc(b1-6)]Gal(b1-4)Glc
Outline: as §1

Neu5Ac(a2-6)Gal(b1-4)Glc = biological target: Neu5Ac(a2-6)Gal(b1-4)Glc
Outline: as §1

[8] = biological target: Neu5Ac(a2-6)Gal(b1-4)GlcNAc
Outline: as §1

[9] = biological target: Neu5Ac(a2-6)Gal(b1-4)GlcNAc(b1-2)Man
Outline: as §1

[10] = biological target: Neu5Ac(a2-6)Gal(b1-4)GlcNAc(b1-2)Man(a1-3)Man(b1-4)GlcNAc(b1-4)GlcNAc
Outline: as §1

[11] = biological target: Neu5Ac(a2-6)Gal(b1-4)GlcNAc(b1-2)Man(a1-3)[Gal(b1-4)GlcNAc(b1-2)Man(a1-6)]Man(b1-4)GlcNAc(b1-4)GlcNAc
Outline: as §1

[12] = biological target: Neu5Ac(a2-6)Gal(b1-4)GlcNAc(b1-2)Man(a1-3)[GlcNAc(b1-2)Man(a1-6)]Man(b1-4)GlcNAc(b1-4)GlcNAc
Outline: as §1

[13] = biological target: Neu5Ac(a2-6)Gal(b1-4)GlcNAc(b1-2)Man(a1-3)[GlcNAc(b1-4)][Neu5Ac(a2-6)Gal(b1-4)GlcNAc(b1-2)Man(a1-6)]Man(b1-4)GlcNAc(b1-4)GlcNAc
Outline: as §1

[14] = biological target: Neu5Ac(a2-6)Gal(b1-4)GlcNAc(b1-2)Man(a1-3)[Man(a1-6)]Man(b1-4)GlcNAc(b1-4)GlcNAc
Outline: as §1

[15] = biological target: Neu5Ac(a2-6)Gal(b1-4)GlcNAc(b1-2)Man(a1-3)[Neu5Ac(a2-3)Gal(b1-4)GlcNAc(b1-2)Man(a1-6)]Man(b1-4)GlcNAc(b1-4)GlcNAc
Outline: as §1

[16] = biological target: Neu5Ac(a2-6)Gal(b1-4)GlcNAc(b1-2)Man(a1-3)[Neu5Ac(a2-6)Gal(b1-4)GlcNAc(b1-2)Man(a1-6)]Man(b1-4)GlcNAc(b1-4)GlcNAc
Outline: as §1

[17] = biological target: Neu5Ac(a2-6)Gal(b1-4)GlcNAc(b1-2)Man(a1-3)[Neu5Ac(a2-6)Gal(b1-4)GlcNAc(b1-2)Man(a1-6)]Man(b1-4)GlcNAc(b1-4)[Fuc(a1-6)]GlcNAc
Outline: as §1

[18] = biological target: Neu5Ac(a2-6)Gal(b1-4)GlcNAc(b1-2)Man(a1-6)Man(b1-4)GlcNAc(b1-4)GlcNAc
Outline: as §1

[19] = biological target: Neu5Ac(a2-6)Gal(b1-4)GlcNAc(b1-2)Man(a1-6)[Gal(b1-4)GlcNAc(b1-2)Man(a1-3)]Man(b1-4)GlcNAc(b1-4)GlcNAc
Outline: as §1

[20] = biological target: Neu5Ac(a2-6)Gal(b1-4)GlcNAc(b1-2)Man(a1-6)[GlcNAc(b1-2)Man(a1-3)]Man(b1-4)GlcNAc(b1-4)GlcNAc
Outline: as §1

[21] = biological target: Neu5Ac(a2-6)Gal(b1-4)GlcNAc(b1-2)Man(a1-6)[Man(a1-3)]Man(b1-4)GlcNAc(b1-4)GlcNAc
Outline: as §1

[22] = biological target: Neu5Ac(a2-6)Gal(b1-4)GlcNAc(b1-2)[Neu5Ac(a2-6)Gal(b1-4)GlcNAc(b1-4)]Man(a1-3)[GlcNAc(b1-4)][Neu5Ac(a2-6)Gal(b1-4)GlcNAc(b1-2)[Neu5Ac(a2-6)Gal(b1-4)GlcNAc(b1-6)]Man(a1-6)]Man(b1-4)GlcNAc(b1-4)GlcNAc
Outline: as §1

[23] = biological target: Neu5Ac(a2-6)Gal(b1-4)GlcNAc(b1-2)[Neu5Ac(a2-6)Gal(b1-4)GlcNAc(b1-4)]Man(a1-3)[GlcNAc(b1-4)][Neu5Ac(a2-6)Gal(b1-4)GlcNAc(b1-4)Man(a1-6)]Man(b1-4)GlcNAc(b1-4)GlcNAc
Outline: as §1

[24] = biological target: Neu5Ac(a2-6)Gal(b1-4)GlcNAc(b1-2)[Neu5Ac(a2-6)Gal(b1-4)GlcNAc(b1-6)]Man(a1-6)[Neu5Ac(a2-6)Gal(b1-4)GlcNAc(b1-2)Man(a1-3)][GlcNAc(b1-4)]Man(b1-4)GlcNAc(b1-4)GlcNAc
Outline: as §1

[25] = biological target: Neu5Ac(a2-6)Gal(b1-4)GlcNAc(b1-3)Gal(b1-3)GlcNAc
Outline: as §1

[26] = biological target: Neu5Ac(a2-6)Gal(b1-4)GlcNAc(b1-3)Gal(b1-4)GlcNAc
Outline: as §1

[27] = biological target: Neu5Ac(a2-6)Gal(b1-4)GlcNAc(b1-3)Gal(b1-4)GlcNAc(b1-2)Man(a1-3)[Neu5Ac(a2-6)Gal(b1-4)GlcNAc(b1-3)Gal(b1-4)GlcNAc(b1-2)Man(a1-6)]GalNAc
Outline: as §1

[28] = biological target: Neu5Ac(a2-6)Gal(b1-4)GlcNAc(b1-3)Gal(b1-4)GlcNAc(b1-3)Gal(b1-4)GlcNAc
Outline: as §1

[29] = biological target: Neu5Ac(a2-6)Gal(b1-4)GlcNAc(b1-3)Gal(b1-4)GlcNAc(b1-3)Gal(b1-4)GlcNAc(b1-2)Man(a1-3)[Neu5Ac(a2-6)Gal(b1-4)GlcNAc(b1-3)Gal(b1-4)GlcNAc(b1-3)Gal(b1-4)GlcNAc(b1-2)Man(a1-6)]GalNAc
Outline: as §1

[30] = biological target: Neu5Ac(a2-6)Gal(b1-4)GlcNAc(b1-3)Gal(b1-4)GlcNAc(b1-3)GalNAc
Outline: as §1

[31] = biological target: Neu5Ac(a2-6)Gal(b1-4)GlcNAc(b1-3)Gal(b1-4)GlcNAc(b1-3)[Neu5Ac(a2-6)Gal(b1-4)GlcNAc(b1-3)Gal(b1-4)GlcNAc(b1-6)]GalNAc
Outline: as §1

[32] = biological target: Neu5Ac(a2-6)Gal(b1-4)GlcNAc(b1-3)Gal(b1-4)GlcNAc(b1-6)[Gal(b1-3)]GalNAc
Outline: as §1

[33] = biological target: Neu5Ac(a2-6)Gal(b1-4)GlcNAc(b1-3)Gal(b1-4)[Fuc(a1-3)]GlcNAc(b1-3)Gal(b1-4)[Fuc(a1-3)]GlcNAc
Outline: as §1

[34] = biological target: Neu5Ac(a2-6)Gal(b1-4)GlcNAc(b1-3)GalNAc
Outline: as §1

B1: Apa (Mycobacterium tuberculosis), Rv1860 (protein)
chain: MHQVDPNLTRRKGRLAALAIAAMASASLVTVAVPATANADPEPAPPVPTTAASPPSTAAAPPAPATPVAPPPPAAANTPNAQPGDPNAAPPPADPNAPPPPVIAPNAPQPVRIDNPVGGFSFALPAGWVESDAAHFDYGSALLSKTTGDPPFPGQPPPVANDTRIVLGRLDQKLYASAEATDSKAAARLGSDMGEFYMPYPGTRINQETVSLDANGVSGSASYYEVKFSDPSKPNGQIWTGVIGSPAANAPDAGPPQRWFVVWLGTANNPVDKGAAKALAESIRPLVAPPPAPAPAPAEPAPAPAPAGEVAPTPTTPTPQRTLPA
- glycan array binding signal (z-score) [1]: -0.633
- glycan array binding signal (z-score) (Neu5Ac(a2-3)GalNAc): -0.153
- glycan array binding signal (z-score) [2]: -0.318
- glycan array binding signal (z-score) [3]: -0.249
- glycan array binding signal (z-score) [4]: -0.38
- glycan array binding signal (z-score) [5]: 0.002
- glycan array binding signal (z-score) [6]: -0.487
- glycan array binding signal (z-score) (Neu5Ac(a2-6)Gal): -0.371
- glycan array binding signal (z-score) [7]: -0.169
- glycan array binding signal (z-score) (Neu5Ac(a2-6)Gal(b1-4)Glc): -0.379
- glycan array binding signal (z-score) [8]: -0.307
- glycan array binding signal (z-score) [9]: 0.488
- glycan array binding signal (z-score) [10]: -0.334
- glycan array binding signal (z-score) [11]: -0.125
- glycan array binding signal (z-score) [12]: -0.489
- glycan array binding signal (z-score) [13]: -0.168
- glycan array binding signal (z-score) [14]: -0.454
- glycan array binding signal (z-score) [15]: -0.473
- glycan array binding signal (z-score) [16]: -0.16
- glycan array binding signal (z-score) [17]: -0.176
- glycan array binding signal (z-score) [18]: -0.312
- glycan array binding signal (z-score) [19]: -0.431
- glycan array binding signal (z-score) [20]: -0.421
- glycan array binding signal (z-score) [21]: -0.289
- glycan array binding signal (z-score) [22]: -0.332
- glycan array binding signal (z-score) [23]: -0.276
- glycan array binding signal (z-score) [24]: -0.515
- glycan array binding signal (z-score) [25]: -0.548
- glycan array binding signal (z-score) [26]: -0.502
- glycan array binding signal (z-score) [27]: -0.349
- glycan array binding signal (z-score) [28]: -0.637
- glycan array binding signal (z-score) [29]: 0.652
- glycan array binding signal (z-score) [30]: -0.538
- glycan array binding signal (z-score) [31]: 0.668
- glycan array binding signal (z-score) [32]: -0.533
- glycan array binding signal (z-score) [33]: -0.125
- glycan array binding signal (z-score) [34]: 0.214
